# Experimental data: publication PMC4336329 (PLoS ONE, 2015)
# Out of some 310,000 compounds screened, about 14,000 (4.5%) showed an effect of 50% or more. Effects have a minus sign here. The list shows a part of the results.
# Target: human ether-à-go-go-related gene (hERG) potassium channel (human, UniProt Q12809)
# Test: primary screen, population patch clamp on CHO cells stably expressing hERG
# 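Also: peak tail current of the secondary pulse compared with the same well before compound.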
# Chain of human ether-à-go-go-related gene (hERG) potassium channel (Q12809 whole entry, looked up): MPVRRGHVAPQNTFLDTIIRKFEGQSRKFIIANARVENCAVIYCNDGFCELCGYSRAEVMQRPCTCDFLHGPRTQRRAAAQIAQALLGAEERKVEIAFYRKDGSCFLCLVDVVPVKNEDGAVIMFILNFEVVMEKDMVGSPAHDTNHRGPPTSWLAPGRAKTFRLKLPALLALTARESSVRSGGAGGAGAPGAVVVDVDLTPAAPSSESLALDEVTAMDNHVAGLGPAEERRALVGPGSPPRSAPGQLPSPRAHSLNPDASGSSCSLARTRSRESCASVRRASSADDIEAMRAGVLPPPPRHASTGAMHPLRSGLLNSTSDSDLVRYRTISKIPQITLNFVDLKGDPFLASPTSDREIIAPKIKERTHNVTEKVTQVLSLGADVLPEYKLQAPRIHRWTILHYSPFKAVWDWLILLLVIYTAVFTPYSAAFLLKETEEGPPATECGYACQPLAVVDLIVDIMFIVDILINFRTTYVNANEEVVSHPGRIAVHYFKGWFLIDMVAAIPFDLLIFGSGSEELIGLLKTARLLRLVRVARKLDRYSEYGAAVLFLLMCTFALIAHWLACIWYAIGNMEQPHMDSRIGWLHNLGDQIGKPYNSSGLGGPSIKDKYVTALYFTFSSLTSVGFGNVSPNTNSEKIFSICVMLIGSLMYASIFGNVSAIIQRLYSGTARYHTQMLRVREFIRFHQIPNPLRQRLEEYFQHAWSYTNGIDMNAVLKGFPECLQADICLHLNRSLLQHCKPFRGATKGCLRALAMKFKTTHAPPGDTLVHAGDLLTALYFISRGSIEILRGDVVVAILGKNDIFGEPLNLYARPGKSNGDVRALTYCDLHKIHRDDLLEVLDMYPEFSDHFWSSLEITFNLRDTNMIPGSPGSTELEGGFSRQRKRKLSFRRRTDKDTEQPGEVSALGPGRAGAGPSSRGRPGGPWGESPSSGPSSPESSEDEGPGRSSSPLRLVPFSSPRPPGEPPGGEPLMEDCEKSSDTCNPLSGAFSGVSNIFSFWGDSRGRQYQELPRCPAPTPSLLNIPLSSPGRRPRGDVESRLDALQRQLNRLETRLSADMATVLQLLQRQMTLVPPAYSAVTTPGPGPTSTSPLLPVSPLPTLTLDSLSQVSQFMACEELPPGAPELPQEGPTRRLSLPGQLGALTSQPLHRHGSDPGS
row,Compound,"hERG current change (%, negative = inhibition) at 10uM"
1,CCn1c2ccccc2c2cc(C3N=C(N)Nc4nc5ccccc5n43)ccc21 (stereo not drawn),-9.28%
2,CCOC(=O)N/N=C/c1ccc(C)o1,-0.825%
3,Cc1nnc(NC(=O)CSc2nnc(-c3ccco3)o2)s1,15.1%
4,CC(=O)c1ccc(N(CC(=O)NC2CCCC2)C(=O)c2ccc(C)s2)cc1,-3.08%
5,COc1ccc(-c2sc(Nc3ccc(F)c(F)c3F)nc2CCC(=O)NN)cc1,17%
6,CCOc1ncccc1C(=O)OCC(=O)Nc1ccc(S(=O)(=O)N2CCOCC2)cc1,-1.11%
7,COc1cc(/C=C/C(=O)Nc2cccnc2)cc(OC)c1OC,9.62%
8,O=C(O)c1ccc(S(=O)(=O)N2CCCc3ccccc32)cc1,19.7%
9,OC[C@H]1OC(O)C[C@@H](O)[C@@H]1O (stereo partly drawn),3.65%
10,Cc1ccccc1N(CC(=O)NC1CCCCC1)C(=O)c1csnn1,8.46%
11,CCCCCCOc1ccc(C(CC(N)=O)C(=O)O)cc1 (stereo not drawn),27.5%
12,COc1ccc2nc(SCc3ccccc3)nc(C)c2c1,6.57%
13,N#Cc1ccc(CSCC(=O)O)cc1,3.78%
14,CC(=O)N1CCN(C(=O)c2ccc(S(=O)(=O)Nc3ccccc3Cl)cc2)CC1,9.8%
15,CC(=O)c1ccc2c(c1)C1C=CCC1C(c1ccc(S(=O)(=O)N3CCOCC3)cc1)N2 (stereo not drawn),13.5%
16,CCC(Oc1ccccc1)C(=O)Nc1ccccc1C(=O)N1CCN(C)CC1 (stereo not drawn),0.0528%
17,Cc1c(C)c(C)c2[nH]c(=S)[nH]c2c1C,24.9%
18,Cc1ccc(NS(=O)(=O)c2ccc(C(=O)N3CCC3)cc2)cc1,15.7%
19,Cc1ccc(NC2=NC(c3ccc(F)cc3)n3c(nc(C)cc3=O)N2)cc1 (stereo not drawn),19%
20,N/C(=N\OC(=O)c1ccccc1Cl)c1cccnc1,-13.3%
21,O=C(/C=C/c1ccc([N+](=O)[O-])cc1)OCC(=O)N1c2ccccc2Sc2ccccc21,-7.57%
22,COCCCn1c(CCC(=O)O)ccc1-c1ccc(F)cc1,7.93%

row,Compound,"hERG current change (%, negative = inhibition) at 10uM"
1,Cc1ccc(C)c(Nc2c([N+](=O)[O-])ccc3nonc23)c1,20.6%
2,Clc1ccccc1-c1nn2c(-c3ccncc3)nnc2s1,-7.89%
3,CCOCCCN(C(=O)Cn1nnc(-c2ccc(OC)c(OC)c2)n1)C(C(=O)NCC1CCCO1)c1ccc(F)cc1 (stereo not drawn),-12.8%
4,Cc1nnsc1-c1nc2ccccc2[nH]1,2.78%
5,COc1ccc2oc(=O)c(/C(C)=N/Nc3ccccc3)cc2c1,-2.36%
6,COC(=O)Cc1c(C)c2ccc(OCC(=O)N3CCOCC3)cc2oc1=O,4.17%
7,CCOc1ccc(NC(=O)CCC(=O)NNC(=O)c2ccco2)cc1,12.1%
8,Cc1nc2c(-c3ccc(F)cc3)c(C)nn2c(C)c1CCC(=O)NCc1ccco1,-19.9%
9,CCN(CC)C(=O)CSc1nc(COc2ccccc2)nc2ccccc12,-5.2%
10,CCc1ccccc1N(CC(=O)NC(C)C)C(=O)CCC(=O)Nc1nccs1,-2.53%
11,N#Cc1ccsc1NC(=O)CN1CCN(c2ccccc2O)CC1,-4.95%
12,COCCN(C(=O)CCl)C(C(=O)NC1CCCCC1)c1ccccc1C (stereo not drawn),3%
13,Cn1nnc(NC(=O)c2ccccc2F)n1,-6.49%
14,O=C(NCCCN1CCOCC1)C(=O)NCC1OCCCN1S(=O)(=O)c1cc(F)ccc1F (stereo not drawn),13.2%
15,COc1ccc(COC(=O)NC2CCN(S(=O)(=O)c3ccc(OC)cc3)CC2)cc1,-2.98%
16,CCOC(=O)c1c(C)[nH]c(C(=O)COC(=O)CNC(=O)C2CCCCC2)c1C,-0.682%
17,Cc1cc(C)c(C)c(S(=O)(=O)N2CCN(C(=O)C3CCC3)CC2)c1C,-21%
18,O=C(CNC(=O)c1ccc(Cl)cc1Cl)OCC(=O)N1CCCC1=O,-5.3%
19,O=C(Nc1cccc2ncccc12)c1ccccc1[N+](=O)[O-],11.2%
20,COc1ccc(-n2nc3c(c2NC(=O)c2cc(Br)ccc2Cl)CS(=O)C3)cc1 (stereo not drawn),-43.4%
21,O=C(CCC(=O)c1ccccc1)NCCOc1ccccc1,8.68%
22,O=C(Nc1ccccc1Cl)c1ccc2c(=O)n3c(nc2c1)CCC3,-6.14%

row,Compound,"hERG current change (%, negative = inhibition) at 10uM"
1,Cc1cccc(N2CCN(CC3CCCCC3)CC2)c1C,26.9%
2,C=CCNCC(=O)Nc1ccccc1SCC(=O)Nc1ccsc1C(=O)OC,-30.7%
3,O=C(NCc1ccc2c(c1)OCO2)c1cnc2n(c1=O)CCS2,0.134%
4,COc1ccc(C)cc1NC(=O)c1cccc(C(=O)Nc2cc(C)ccc2OC)c1,-13.3%
5,COCCN1C(=O)C(=O)/C(=C(/O)c2cccc(OC)c2)C1c1ccco1 (stereo not drawn),24.8%
6,Cc1nc2ccc(C(=O)N3c4ccccc4CC3C)cc2s1 (stereo not drawn),-14%
7,NNC(=O)c1ccc(Cl)cc1Cl,24.1%
8,Cc1cc(OCC(=O)Nc2ccc(N3CCCC3)cc2)cc(C)c1Cl,0.549%
9,COCc1cc(C)nc2sc(C(=O)Nc3ccccc3F)c(N)c12,10.2%
10,CC(C)(C)N(Cc1ccccc1)C(=O)c1ccc2c(c1)OCCO2,-9.12%
11,N=C(N)c1c(O)n(C2CCCCC2)c(=O)n(C2CCCCC2)c1=O,18.5%
12,COc1ccc(NC(=O)Nc2nnc(N3CCCCC3C)s2)cc1OC (stereo not drawn),7.76%
13,C=C(C)C1CC=C(C)/C(=N/NC(=O)C2CC2c2ccccc2)C1 (stereo not drawn),25.4%
14,Cc1ccc(NS(=O)(=O)c2cc(NC(=O)C(C)Oc3ccccc3)ccc2C)c(C)c1 (stereo not drawn),-1.24%
15,CN1C(=O)C(C)(C)c2cc(S(=O)(=O)N3CCCC(C(=O)Nc4ccc(Cl)cc4)C3)ccc21 (stereo not drawn),-9.27%
16,O=C(O)C1=C(C(=O)Nc2ccc(F)c(Cl)c2)CCCC1,17.7%
17,c1cnc(N2CCN(c3ccc4ccccc4n3)CC2)nc1,12.5%
18,COc1ccc(CCN(C(=O)Cn2nnc3ccccc32)C(C(=O)NCC2CCCO2)c2ccncc2)cc1OC (stereo not drawn),48.5%
19,COc1ccccc1N(CC(=O)NCc1ccccc1)C(=O)CCC(=O)Nc1ccccn1,-9.48%
20,CC(=O)CN1C(=O)NC2(CCCc3ccccc32)C1=O (stereo not drawn),26.1%
21,CC(C)(C(N)=O)N1CCN(c2ncc(C(F)(F)F)cc2Cl)CC1,-42.4%
22,CC1CCN(C(=O)C(Cc2ccccc2)n2cccc2)CC1 (stereo not drawn),0.382%

row,Compound,"hERG current change (%, negative = inhibition) at 10uM"
1,Cc1ccc(S(=O)(=O)N2CCOCC2)cc1C(=O)OCC(=O)NC1CC1,-3.74%
2,CCOc1ccc(C(C(=O)NC2CCCCC2)N(CCOC)C(=O)c2snc(C(N)=O)c2N)cc1 (stereo not drawn),-47.5%
3,CCOC(=O)C(=NC(C)CC)NNc1cccc(C(F)(F)F)c1 (stereo not drawn),-1.86%
4,CC(C)(C)NC(=O)C(c1cccs1)N(C(=O)c1csnn1)c1ccccc1F (stereo not drawn),5.99%
5,O=C(NNC(=O)C1[C@H]2CCCC[C@@H]12)Nc1cccc2ccccc12 (stereo partly drawn),-6.11%
6,O=C(N/N=C/C(Cl)=C/c1ccc([N+](=O)[O-])cc1)C(=O)Nc1ccccc1C(=O)O,3.88%
7,COc1cc(SC)ccc1C(=O)OCC(=O)NCCNC(=O)COC(=O)c1ccc(SC)cc1OC,3.14%
8,O=C1c2cccc3c(N4CCCCC4)ccc(c23)C(=O)N1c1cccc(O)c1,32.6%
9,Cc1cc(C(F)F)n2nc(C(=O)Nc3sc4c(c3C#N)CCC4)nc2n1,18.3%
10,O=C(Nc1nc(-c2ccncc2)cs1)C1c2ccccc2Oc2ccccc21,8.83%
11,Cc1nn(C(C)C(=O)N2CCCC2)c(=O)c2nn(-c3ccccc3)c(C)c12 (stereo not drawn),-0.856%
12,CCN1CCN(CCNC(=O)c2ccc(/C=C3/Sc4ccccc4N(Cc4cccc(C)c4)C3=O)cc2)CC1,-22%
13,O=C1CN=C(c2ccccc2)c2cc(Br)ccc2N1,-25.9%
14,COc1cc(C)ccc1OCc1cc(C(=O)NC(C)Cn2cncn2)no1 (stereo not drawn),13.8%
15,Cc1cccc(-n2c(C)nc3ccc(Cl)cc3c2=O)c1,-9.64%
16,CCOC(=O)C(NC(=O)c1cccc(Cl)c1)(OCc1ccccc1)C(F)(F)F (stereo not drawn),-5.11%
17,COc1ccc(CNC(=O)CN2C(=O)CC(c3ccccc3)=Nc3ccccc32)cc1,-8.66%
18,Nc1nonc1-c1nc2ccccc2[nH]1,-4.81%
19,Cc1cc(C)c(-c2cc(C(=O)Nc3c(C)n(C)n(-c4ccccc4)c3=O)[nH]n2)c(O)c1,-17.3%
20,COc1cccc(-c2nc(CS(=O)(=O)CC(=O)Nc3cc(OC)ccc3OC)c(C)o2)c1,15.4%
21,CCN(CC(=O)Nc1c(F)cccc1F)C(=O)CN1c2cccc3cccc(c23)S1(=O)=O,-0.876%
